# In the supplement of paper PMC8728848:
# The list shows a part of the results.
# B1: AT5G01260(PC)(40) (Arabidopsis thaliana), Q9LFB0 (protein)
# chain: MIGIGRTLTSSSPSKIILEDLPPGIYRYGTEIFTSVPRKTFHHIKFLRLDSAQSSRILKPVPLRSSSIKDSQVNVEDEEIEASNKTVRVRFQLRKECVFGEHFFIVGDDPVFGGLWDPETALPLNWSDGNVWTVDLDLPVGRLVEFKLLLKAQTGEILWQPGPNRALETWETNKTIRICEDWDNADLQMMIEEDFVPYTNISSIGSEDEDEVLGSVQQNSSVVAVENAGYVSDESAQNSSFSIQSEKTMEPSNGALTAREVIKEAMFTEEESPVLVPGLIPLSDLDNEQVEVINEGKAETFPEVDKKQEPKAERNKKAKVKAISLFEKSEQEAVKSVEQRQYNAVEEEQQRLETEPLGTPDVLFENDIQWGRRTLYKLLSNFRLF
# How the values were obtained:
# Test in all cases: glycan array binding signal (z-score within array); higher = stronger binding
# Conditions in all cases: glycan notation: IUPAC condensed, linker removed
# Neu5Ac(a2-8)Neu5Ac = molecular target: Neu5Ac(a2-8)Neu5Ac
# Outline: (§1)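 The Consortium for Functional Glycomics database supplied 3228 glycan arrays, of which those lacking an available protein sequence were dropped. The binding signal, a within-array Z-score, was averaged across arrays of the same protein sequence and across linkers. Negative scores can be read as non-binding.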
# [1] = molecular target: Neu5Ac(a2-8)Neu5Ac(a2-3)Gal(b1-3)GalNAc(b1-4)[Neu5Ac(a2-3)]Gal(b1-4)Glc
# Outline: as §1
# [2] = molecular target: Neu5Ac(a2-8)Neu5Ac(a2-3)Gal(b1-3)GalNAc(b1-4)[Neu5Ac(a2-8)Neu5Ac(a2-3)]Gal(b1-4)Glc
# Outline: as §1
# [3] = molecular target: Neu5Ac(a2-8)Neu5Ac(a2-3)Gal(b1-4)Glc
# Outline: as §1
# [4] = molecular target: Neu5Ac(a2-8)Neu5Ac(a2-3)Gal(b1-4)GlcNAc
# Outline: as §1
# [5] = molecular target: Neu5Ac(a2-8)Neu5Ac(a2-3)[Gal(b1-3)GalNAc(b1-4)]Gal(b1-4)Glc
# Outline: as §1
# [6] = molecular target: Neu5Ac(a2-8)Neu5Ac(a2-3)[GalNAc(b1-4)]Gal(b1-4)Glc
# Outline: as §1
# [7] = molecular target: Neu5Ac(a2-8)Neu5Ac(a2-8)Neu5Ac
# Outline: as §1
# [8] = molecular target: Neu5Ac(a2-8)Neu5Ac(a2-8)Neu5Ac(a2-3)Gal(b1-4)Glc
# Outline: as §1
# [9] = molecular target: Neu5Ac(a2-8)Neu5Ac(a2-8)Neu5Ac(a2-3)[Gal(b1-3)GalNAc(b1-4)]Gal(b1-4)Glc
# Outline: as §1
# [10] = molecular target: Neu5Ac(a2-8)Neu5Ac(a2-8)Neu5Ac(a2-3)[GalNAc(b1-4)]Gal(b1-4)Glc
# Outline: as §1
# [11] = molecular target: Neu5Ac(a2-8)Neu5Ac(a2-8)Neu5Ac(a2-8)Neu5Ac(a2-3)[GalNAc(b1-4)]Gal(b1-4)Glc
# Outline: as §1
# [12] = molecular target: Neu5Ac(a2-8)Neu5Gc(a2-3)Gal(b1-4)GlcNAc
# Outline: as §1
# [13] = molecular target: Neu5Ac(b2-6)Gal(b1-4)GlcNAc
# Outline: as §1
# Neu5Ac(b2-6)GalNAc = molecular target: Neu5Ac(b2-6)GalNAc
# Outline: as §1
# [14] = molecular target: Neu5Ac9Ac(a2-3)Gal(b1-3)GlcNAc
# Outline: as §1
# [15] = molecular target: Neu5Ac9Ac(a2-3)Gal(b1-4)GlcNAc
# Outline: as §1
# [16] = molecular target: Neu5Ac9Ac(a2-6)Gal(b1-4)GlcNAc
# Outline: as §1
# [17] = molecular target: Neu5Gc(a2-3)Gal(b1-3)GlcNAc
# Outline: as §1
# [18] = molecular target: Neu5Gc(a2-3)Gal(b1-3)[Fuc(a1-4)]GlcNAc
# Outline: as §1
# Neu5Gc(a2-3)Gal(b1-4)Glc = molecular target: Neu5Gc(a2-3)Gal(b1-4)Glc
# Outline: as §1
# [19] = molecular target: Neu5Gc(a2-3)Gal(b1-4)GlcNAc
# Outline: as §1
# [20] = molecular target: Neu5Gc(a2-3)Gal(b1-4)GlcNAc(b1-3)Gal(b1-4)GlcNAc(b1-2)Man(a1-3)[Neu5Gc(a2-3)Gal(b1-4)GlcNAc(b1-3)Gal(b1-4)GlcNAc(b1-2)Man(a1-6)]Man(b1-4)GlcNAc(b1-4)GlcNAc
# Outline: as §1
# [21] = molecular target: Neu5Gc(a2-3)Gal(b1-4)[Fuc(a1-3)]GlcNAc
# Outline: as §1
# [22] = molecular target: Neu5Gc(a2-6)Gal(b1-4)GlcNAc
# Outline: as §1
# Neu5Gc(a2-6)GalNAc = molecular target: Neu5Gc(a2-6)GalNAc
# Outline: as §1
# [23] = molecular target: Neu5Gc(a2-8)Neu5Ac(a2-3)Gal(b1-4)GlcNAc
# Outline: as §1
# [24] = molecular target: Neu5Gc(a2-8)Neu5Gc(a2-3)Gal(b1-4)GlcNAc
# Outline: as §1
# [25] = molecular target: Neu5Gc(a2-8)Neu5Gc(a2-3)Gal(b1-4)GlcNAc(b1-3)Gal(b1-4)GlcNAc
# Outline: as §1
# [26] = molecular target: Neu5Gc(a2-8)Neu5Gc(a2-6)Gal(b1-4)GlcNAc
# Outline: as §1
# [27] = molecular target: Neu5Gc(b2-6)Gal(b1-4)GlcNAc
# Outline: as §1
binder,measurement,setting,value
B1,glycan array binding signal (z-score),Neu5Ac(a2-8)Neu5Ac,0.074
same,glycan array binding signal (z-score),[1],-0.412
same,glycan array binding signal (z-score),[2],1.02
same,glycan array binding signal (z-score),[3],0.641
same,glycan array binding signal (z-score),[4],-0.077
same,glycan array binding signal (z-score),[5],0.612
same,glycan array binding signal (z-score),[6],0.746
same,glycan array binding signal (z-score),[7],-0.58
same,glycan array binding signal (z-score),[8],0.679
same,glycan array binding signal (z-score),[9],-0.665
same,glycan array binding signal (z-score),[10],-0.154
same,glycan array binding signal (z-score),[11],0.413
same,glycan array binding signal (z-score),[12],0.029
same,glycan array binding signal (z-score),[13],-0.156
same,glycan array binding signal (z-score),Neu5Ac(b2-6)GalNAc,-0.728
same,glycan array binding signal (z-score),[14],-0.666
same,glycan array binding signal (z-score),[15],-0.427
same,glycan array binding signal (z-score),[16],-0.05
same,glycan array binding signal (z-score),[17],-0.145
same,glycan array binding signal (z-score),[18],-0.249
same,glycan array binding signal (z-score),Neu5Gc(a2-3)Gal(b1-4)Glc,0.948
same,glycan array binding signal (z-score),[19],-0.06
same,glycan array binding signal (z-score),[20],0.832
same,glycan array binding signal (z-score),[21],0.055
same,glycan array binding signal (z-score),[22],-0.103
same,glycan array binding signal (z-score),Neu5Gc(a2-6)GalNAc,-0.306
same,glycan array binding signal (z-score),[23],-0.014
same,glycan array binding signal (z-score),[24],-0.671
same,glycan array binding signal (z-score),[25],-0.294
same,glycan array binding signal (z-score),[26],0.02
same,glycan array binding signal (z-score),[27],0.159
